The whole screen tested about 48,000 compounds, of which about 120 (0.25%) were called active. About 4% were inconclusive and are not listed. Calls come from the whole dose curve; as a rule, active = well fitted activation curve with a large enough effect; inconclusive = small, poorly fitted or top-dose-only effect, or another doubt; inactive = no such curve, though single readings can be large or run the other way. The list shows a part of the results.
assay: Primary qHTS for Identification of Small Molecule Activators of Huntingtin-Antisense Promoter Activity; settings: HEK293 HTT-AS promoter firefly luciferase reporter, 24 h; series mostly up to 57.5 µM; activity change, positive = activation: at the top concentration; note: nearly all actives have a fitted effect of over 55% in size
Summary of the method: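 Firefly luciferase signal from promoter-reporter HEK293 cells was scaled between vehicle (0%) and zero RLU (-100%). Compounds were tested at final concentrations of up to 57.5 uM over 24 h at 37 degrees C. PTC124 at 50 uM final served as control inhibitor.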

Activity change, positive = activation, inactive:
O=C(CCSCc1cccc(Cl)c1)NCc1ccc(F)cc1Cl -15.3%
CCc1ccccc1NC(=O)c1sc2nc(C)cc(COC)c2c1N -2.85%
Cc1ccc2[nH]c(CSc3nnc(NC(=O)c4ccccc4F)s3)cc(=O)c2c1 -25.2%
Cc1ccc(S(=O)(=O)c2[nH]c(-c3ccccc3)nc2SCCC(=O)O)cc1 -2.83%
Cc1cccc(CCNC(=O)c2ccc(CSCc3cccc(Cl)c3)o2)c1 -17.1%
Cc1cccc(N(Cc2cc3ccccc3[nH]c2=O)C(=O)c2cccc(Cl)c2)c1 -30.1%
Cc1ccc(N2CC(NC(=O)CCc3ccccc3)CC2=O)cc1C (configuration not stated) -2.67%
CCCn1c(=N)n(CC(O)COc2ccccc2OC)c2ccccc21 (configuration not stated) -9.26%
Cc1nn(CC(=O)N2CCN(c3cccc(C(F)(F)F)c3)CC2)c(=O)c2cc3sccc3n12 -13.1%
CCOc1ccc(NC(=O)c2c(Nc3ccccc3C)sc(C(=O)c3ccc(Cl)cc3)c2N)cc1 -17.4%
CCCN1CCN(c2cc3c(cc2F)c(=O)c(S(=O)(=O)c2ccc(CC)cc2)cn3CC)CC1 -3.97%
CCOc1ccc(NC(=O)CC(C)O)cc1 (configuration not stated) -4.88%
COc1ccccc1NC(=O)CSc1nc(-c2ccc(C)cc2)nc2c1Cc1c(CO)cnc(C)c1O2 -9.83%
Cc1nn2c(=O)cc(COC(=O)c3ccc(NC(=O)c4cccc(Br)c4)cc3)nc2s1 -35.4%
COc1ccc(-c2cn3nc(N4CCCC(C(=O)Nc5ccccc5OC)C4)sc3n2)cc1 (configuration not stated) 2.74%
COC(=O)c1ccccc1NC(=O)Cn1c(=O)n(CCC(=O)NCc2ccccc2OC)c(=O)c2ccccc21 -9.77%
Cc1cn([C@@H]2O[C@H](CO)[C@@H](O)[C@H]2F)c(=O)[nH]c1=O 0.566%
Cc1ccc(Cl)cc1NC(=O)CN1C(=O)CSc2ccc(S(=O)(=O)N3CCCC3)cc21 -18.4%
c1ccc2occc2c1 -6% [at 116 µM, percent change from vehicle, -100% = no light]
CCOC(=O)c1c(S(=O)(=O)NCC(=O)N2CCN(c3cc(C)ccc3C)CC2)c(C)n(C)c1C -33.8%
Cc1cccc(NC(=O)CCN2CCN(c3ccccc3F)CC2)c1 12.7%
C=Cc1ccc(Cn2c(=O)cc(C)c3c(C)nn(-c4ccccc4)c32)cc1 -22.3%
O=C(NC1(C(F)(F)F)C(=O)Nc2c1c(=O)[nH]c(=O)n2-c1ccccc1)c1ccccc1Cl (configuration not stated) -0.734%
COc1cc(OC)cc(-c2cc3nc(C)c(CCC(=O)Nc4ccc(C(C)=O)cc4)c(C)n3n2)c1 -78.1%
CSCCC(NS(=O)(=O)c1ccc2c(c1)oc(=O)n2C)C(=O)Nc1ccc(Cl)cc1 (configuration not stated) -7.91%
COc1ccc(OCC(=O)N(Cc2cccs2)c2ccc(OC)cc2)cc1 -14.5%
COCc1cc(C)nc2sc3c(c12)NC(c1ccc(O)c(OC)c1)N(c1ccccc1)C3=O (configuration not stated) -17.5%
CCn1c(C)c(C)c2cc(C(=O)NCc3ccc(OC(C)C)cc3)ccc21 -4.87%
COc1cc2c(C(=O)N3CCN(c4cccc(C(F)(F)F)c4)CC3)cn(CC(C)C)c(=O)c2cc1OC -41.1%
COc1ccc(NC(=O)Cn2c(=O)n(Cc3ccc4c(c3)OCO4)c(=O)c3ccc(C(=O)NC4CCCCC4)cc32)cc1 -16%
COc1ccc(-c2noc(N3CCC(C(=O)N4CCN(c5ccccc5F)CC4)CC3)n2)cc1 -47.7%
CCOCCCNc1nc2ccccc2n2c(CC)nnc12 4.86%
CCCN(CCC)C(=O)C(CCC(=O)OCCCN1CCN(CCOC(=O)Cc2c(C)n(C(=O)c3ccc(Cl)cc3)c3ccc(OC)cc23)CC1)NC(=O)c1ccccc1 (configuration not stated) -26%
CCOc1ccccc1CNC(=O)c1ccc(NC(=O)N2CC(C)Sc3ccccc32)cc1 (configuration not stated) -26.5%
O=C(NC1(C(F)(F)F)C(=O)Nc2c1c(=O)[nH]c(=O)n2-c1ccccc1)c1ccccc1 (configuration not stated) 6.67%
CCOc1ccc(C(=O)NCc2nc3cccnc3n2Cc2cccc(OC)c2)cc1 -5.55%
CCCN(CCC)C(=O)Cn1c(SCc2cccc(C(F)(F)F)c2)nc2cccnc21 -16.6%
N#Cc1ccccc1NC(=O)C(=O)NCCc1csc2nc(-c3cccc(F)c3)nn12 -17.5%
C=CCCCCCCCCC(=O)O -5.13%
COc1ccc(OC)c(CNC(=O)CN(c2ccc(C)cc2)S(=O)(=O)N(C)C)c1 -11.1%
Cc1cccc(NC(=O)N2CCN(C)c3ncccc32)c1C -21%
CCCN(C(=O)Cn1ncc2c1-c1ccccc1OC2)c1cccc(C)c1 -39.1%
Cc1cccc(N2CCN(c3ccc(C(=O)O)cc3NC(=O)c3cccc(Cl)c3)CC2C)c1 (configuration not stated) -11.8%
CCc1ccc(-c2nc(SCC(=O)NCC3CCCO3)c(-c3ccc(C)cc3)[nH]2)cc1 (configuration not stated) -9.51%
Cc1cccc(C)c1NC(=O)Cn1c(=O)n(CCCS(=O)(=O)C2CCCCC2)c(=O)c2ccccc21 -8.32%
CCOC(=O)C1CCN(c2c(C(=O)c3ccc(OC)cc3)cnc3ccccc23)CC1 -25%
COc1ccc(CCNC(=O)c2nc(SCc3ccccc3F)ncc2Cl)cc1OC -48.5%
CSCC[C@@H](C(=O)Nc1cccc(F)c1)N1Cc2ccccc2C1=O -12.3%
CCOCCc1nn2c(=O)cc(COC(=O)Cc3ccccc3)nc2s1 -10.4%
CCOC(=O)c1cc2c(=O)n3ccccc3nc2n(Cc2ccco2)c1=NC(=O)c1ccc(C)c(C)c1 -20.2%
CN(c1ccccc1)S(=O)(=O)c1nnc(NC(=O)COc2ccccc2)s1 -16.1%
O=C(Cn1c(=O)oc2cc(S(=O)(=O)N3CCCCCC3)ccc21)Nc1ccc(F)cc1F -34.6%
O=C(Nc1cc2c(cc1C(=O)c1cccc(Br)c1)OCCO2)c1ccccc1F -26.6%
CN(C(=O)Cn1cnc2onc(-c3ccc(F)cc3)c2c1=O)c1ccccc1Cl -16.9%
Cc1cc(C)cc(-n2c(C)cc(C(=O)C(=O)Nc3nnc(C)s3)c2C)c1 -9.75%
Cc1cccc(-c2nc(C)c(CCNC(=O)C(=O)Nc3cccc(Cl)c3C)s2)c1 15.2%
O=C(Cn1cc(SCc2ccc(C(F)(F)F)cc2)c2ccccc21)N1CCOCC1 7.91%
O=C(NCc1ccccc1)c1cc2sccc2n1Cc1ccc(Cl)cc1 -12.7%
Cc1ccc(-c2nc(-c3cc4c([nH]c3=O)CC(C)(C)CC4=O)sc2C)cc1 -13.2%
CCCCSc1nc(-c2ccc(OC)cc2)ccc1C#N -31.1%
COC(=O)c1ccccc1NC(=O)Cn1c(CCC(=O)O)ccc1-c1cccs1 -30.5%
CCOc1ccc(N(C)C(=O)CS(=O)(=O)c2cccc3nsnc23)cc1 -8.95%
COC(=O)CSc1ncc2c(n1)-c1ccccc1N(Cc1ccccc1C)S2(=O)=O 17.4%
O=C1CCC(N2C(=O)c3ccccc3C2=O)C(=O)N1 (configuration not stated)
Cc1ccc2occ(CC(=O)N(Cc3ccccc3Cl)C3CCS(=O)(=O)C3)c2c1 (configuration not stated) -17%
CCOC(=O)c1cccc(NC(=O)NCc2cccn2Cc2ccccc2)c1 -36.3%
O=C(CSc1oc(-c2ccccc2)nc1S(=O)(=O)c1ccc(Cl)cc1)Nc1ccc(F)cc1 9.53%
CC(=O)/C=C/C=C1/C2CCC(C2)C1(C)C (configuration not stated) -0.203%
CC(=O)c1ccc(NC(=O)CN2C(=O)CCc3ccccc32)cc1 -2.3%
Cc1ccc(Cn2cc(CCC(=O)NC3CCC(C)CC3)c3ccccc32)cc1 (configuration not stated) 10.1%
CC1CCC(Nc2nc3c(-c4ccc(Cl)cc4)nnn3c3ccccc23)CC1 (configuration not stated) -6.99%
CC(=O)Nc1ccc(/C=C/c2nc(-c3ccccc3O)n(-c3ccccc3)n2)cc1 -15.5%
Cn1c(=O)oc2cc(S(=O)(=O)N3CCCC(C(=O)NCCc4ccc(Cl)cc4)C3)ccc21 (configuration not stated) -36.3%
COc1ccccc1CNS(=O)(=O)c1ccc2c(c1)NC(=O)C(C)C(=O)N2 (configuration not stated) -19.4%
Cc1nn2c(=O)cc(COC(=O)c3ccco3)nc2s1 -4.27%
COc1cccc(CNCCSc2nnnn2C)c1OCc1ccccc1Cl -21.9%
COc1cccc(CNS(=O)(=O)c2ccc3c(c2)CCN3C(=O)C2CCC2)c1 -26.4%
O=C(Nc1ccc(F)cc1)N1CCN(c2ccccc2F)CC1 18.7%
Cc1cc(=O)[nH]c2nnc(SCc3ccc(F)cc3)n12 -8.5%
COc1ccc(N2C(=O)CS(=O)(=O)C23C(=O)N(Cc2cccc(F)c2)c2ccccc23)cc1OC (configuration not stated) -25.3%
O=C(CC(c1cccs1)N1Cc2ccccc2C1=O)Nc1ccc(F)c(F)c1 (configuration not stated) -13%
Cc1ccc(C)c(S(=O)(=O)c2nnn3c2nc(Nc2ccc(C)c(C)c2)c2sccc23)c1 -6.31%
COc1ccc(Cn2c(SCC(=O)NCc3ccc(Cl)cc3)nc3ccsc3c2=O)cc1 -8.58%
CCOC(=O)c1ccc(-n2c(CCC(=O)O)ccc2-c2ccc(Br)cc2)cc1 -22.5%
CC(C)(C)CC(C)(C)c1ccc(O)c(-n2nc3ccccc3n2)c1 -4.42%
O=C(NCc1cccs1)c1ccc(Cn2c(SCc3ccccc3)nc3cccnc32)cc1 -12%
O=C(Nc1c(C(=O)N2CCN(c3ccccc3)CC2)oc2ccccc12)c1ccc(Br)o1 -16.8%
Cc1cc(Cl)ccc1OCC(=O)Nc1c(Cl)ccc2nsnc12 -22.5%
COc1ccc2nc3oc(C(=O)N4CCN(c5cc(C)ccc5C)CC4)cc3cc2c1 25.4%
CCC(=O)N1CCc2cc(S(=O)(=O)CCC(=O)Nc3ccc(OC(F)(F)F)cc3)ccc21 -24.9%
COc1ccc(CC(=O)Nc2sc3c(c2C(=O)Nc2cccc(Cl)c2)CCCCC3)cc1 -79.3%
COc1ccccc1N1CCN(C(=O)C(CCSC)NS(=O)(=O)c2ccc3c(c2)oc(=O)n3C)CC1 (configuration not stated) -24%
CC(C)Oc1ccc(CNC(=O)CCCN2C(=O)CCn3nc(-c4cccn4C)cc32)cc1 -5.87%
O=C1NCCN1CCN1CCC(c2cn(-c3ccc(F)cc3)c3ccc(Cl)cc23)CC1 -39.9%
O=C(c1ccco1)n1nc(-c2ccccc2)nc1NCc1ccc(Cl)cc1 1.19%
Cc1nn(-c2ccccc2)c2c1N(CCCC(=O)NCc1ccc(N(C)C)cc1)C(=O)CS2 -17.8%
CCc1ccc(NCc2cc3ccc(OC)cc3n(CC(=O)Nc3ccc(F)cc3F)c2=O)cc1 -1.42%

Reference: PubChem BioAssay AID1508624 (National Center for Advancing Translational Sciences (NCATS), 2021)
